From patent US6693174B2, “Gene regulating aureobasidin sensitivity” (Takara Shuzo Co., Ltd., priority 1993, dated 2004)

System: Sake yeast Kyokai K-701 transformants
Assay: Aureobasidin A resistance of sake yeast transformants obtained with StuI-linearized plasmids
Details: transformant obtained by using the linearized pUscaur1R-C

## CC[C@@H](C)[C@@H]1NC(=O)[C@@H]2CCCN2C(=O)[C@H](Cc2ccccc2)N(C)C(=O)[C@H](Cc2ccccc2)NC(=O)[C@H](C(C)C)N(C)C(=O)[C@@H]([C@H](C)CC)OC(=O)[C@H](C(C)(C)O)N(C)C(=O)[C@H](CC(C)C)NC(=O)[C@H](C(C)C)N(C)C1=O [aureobasidin A] (cyclo(F[NMeF]P[aIle][NMeV]L[NMeVal(β-OH)][X1][NMeV]))
  MIC to aureobasidin A: ≥ 20 µg/mL

*1 amine or outer side, *2 acyl side, *3 side chain or, on linkers, in order; H or OH if unused. Where a SMILES comes first, the peptide text is derived from it. [ ]: non-standard residue; d: D form. X1 = CC[C@@H](C)[C@@H](O[*:1])C(=O)[*:2]; NMeVal(β-OH) = CN[C@H](C(=O)O)C(C)(C)O; NMeF = CN[C@@H](Cc1ccccc1)C(=O)O; aIle = CC[C@@H](C)[C@H](N)C(=O)O; NMeV = CN[C@H](C(=O)O)C(C)C
